This is one part of the list.
What was measured:
Assay in all cases: glycan array binding signal (z-score within array); higher = stronger binding
Details in all cases: glycan notation: IUPAC condensed, linker removed
[1] = biological target: Gal(a1-4)Gal(b1-4)Glc
Summary of the method: (§1)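 The binding signal is a Z-score computed within each array. Data were drawn from 3228 arrays in the Consortium for Functional Glycomics database, restricted to those with a known protein sequence. Scores were averaged over arrays of the same protein sequence at different concentrations or buffers, and over linkers, and negative values can be taken as non-binding.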

[2] = biological target: Gal(a1-4)Gal(b1-4)GlcNAc
Summary of the method: as §1

[3] = biological target: Gal(a1-4)GlcNAc
Summary of the method: as §1

[4] = biological target: Gal(a1-6)Glc
Summary of the method: as §1

[5] = biological target: Gal(b1-2)Gal
Summary of the method: as §1

[6] = biological target: Gal(b1-3)Gal
Summary of the method: as §1

[7] = biological target: Gal(b1-3)GalNAc
Summary of the method: as §1

[8] = biological target: Gal(b1-3)GalNAc(b1-3)Gal(a1-4)Gal(b1-4)Glc
Summary of the method: as §1

[9] = biological target: Gal(b1-3)GalNAc(b1-4)Gal(b1-4)Glc
Summary of the method: as §1

[10] = biological target: Gal(b1-3)GalNAc(b1-4)[Neu5Ac(a2-3)]Gal(b1-4)Glc
Summary of the method: as §1

[11] = biological target: Gal(b1-3)GlcNAc
Summary of the method: as §1

[12] = biological target: Gal(b1-3)GlcNAc(b1-3)Gal(b1-4)Glc
Summary of the method: as §1

[13] = biological target: Gal(b1-3)GlcNAc(b1-3)Gal(b1-4)GlcNAc
Summary of the method: as §1

[14] = biological target: Gal(b1-3)[Fuc(a1-4)]GlcNAc
Summary of the method: as §1

[15] = biological target: Gal(b1-3)[Fuc(a1-4)]GlcNAc(b1-3)Gal(b1-4)GlcNAc
Summary of the method: as §1

[16] = biological target: Gal(b1-3)[Fuc(a1-4)]GlcNAc(b1-3)Gal(b1-4)[Fuc(a1-3)]GlcNAc
Summary of the method: as §1

[17] = biological target: Gal(b1-3)[GlcNAc(b1-6)]GalNAc
Summary of the method: as §1

[18] = biological target: Gal(b1-3)[Neu5Ac(a2-6)]GalNAc
Summary of the method: as §1

[19] = biological target: Gal(b1-3)[Neu5Ac(a2-6)]GlcNAc(b1-6)Gal(b1-4)Glc
Summary of the method: as §1

[20] = biological target: Gal(b1-3)[Neu5Ac(b2-6)]GalNAc
Summary of the method: as §1

[21] = biological target: Gal(b1-4)GalNAc(a1-3)[Fuc(a1-2)]Gal(b1-4)GlcNAc
Summary of the method: as §1

[22] = biological target: Gal(b1-4)GalNAc(b1-3)[Fuc(a1-2)]Gal(b1-4)GlcNAc
Summary of the method: as §1

[23] = biological target: Gal(b1-4)Glc
Summary of the method: as §1

[24] = biological target: Gal(b1-4)Glc6S
Summary of the method: as §1

[25] = biological target: Gal(b1-4)GlcNAc
Summary of the method: as §1

[26] = biological target: Gal(b1-4)GlcNAc(b1-2)Man(a1-3)[Gal(b1-4)GlcNAc(b1-2)Man(a1-6)]Man(b1-4)GlcNAc(b1-4)GlcNAc
Summary of the method: as §1

[27] = biological target: Gal(b1-4)GlcNAc(b1-3)Gal(b1-4)Glc
Summary of the method: as §1

[28] = biological target: Gal(b1-4)GlcNAc(b1-3)Gal(b1-4)GlcNAc
Summary of the method: as §1

[29] = biological target: Gal(b1-4)GlcNAc(b1-3)Gal(b1-4)GlcNAc(b1-3)Gal(b1-4)GlcNAc
Summary of the method: as §1

[30] = biological target: Gal(b1-4)GlcNAc(b1-3)Gal(b1-4)[Fuc(a1-3)]GlcNAc(b1-3)Gal(b1-4)[Fuc(a1-3)]GlcNAc
Summary of the method: as §1

[31] = biological target: Gal(b1-4)GlcNAc(b1-3)GalNAc
Summary of the method: as §1

[32] = biological target: Gal(b1-4)GlcNAc(b1-3)[Gal(b1-4)GlcNAc(b1-6)]GalNAc
Summary of the method: as §1

[33] = biological target: Gal(b1-4)GlcNAc(b1-6)Gal(b1-4)GlcNAc(b1-6)GalNAc
Summary of the method: as §1

[34] = biological target: Gal(b1-4)GlcNAc(b1-6)GalNAc
Summary of the method: as §1

[35] = biological target: Gal(b1-4)GlcNAc(b1-6)[Gal(b1-3)]GalNAc
Summary of the method: as §1

[36] = biological target: Gal3S(b1-3)GalNAc
Summary of the method: as §1

[37] = biological target: Gal3S(b1-3)GlcNAc
Summary of the method: as §1

[38] = biological target: Gal3S(b1-3)[Fuc(a1-4)]GlcNAc
Summary of the method: as §1

[39] = biological target: Gal3S(b1-4)Glc
Summary of the method: as §1

[40] = biological target: Gal3S(b1-4)Glc6S
Summary of the method: as §1

[41] = biological target: Gal3S(b1-4)GlcNAc
Summary of the method: as §1

[42] = biological target: Gal3S(b1-4)GlcNAc6S
Summary of the method: as §1

[43] = biological target: Gal3S6S(b1-4)GlcNAc
Summary of the method: as §1

[44] = biological target: Gal3S6S(b1-4)GlcNAc6S
Summary of the method: as §1

[45] = biological target: Gal4S(b1-4)GlcNAc
Summary of the method: as §1

B1: DCAL1 (Homo sapiens), Q8IZS7 (protein)
chain: MVSNFFHVIQVFEKSATLISKTEHIGFVIYSWRKSTTHLGSRRKFAISIYLSEVSLQKYDCPFSGTSFVVFSLFLICAMAGDVVYADIKTVRTSPLELAFPLQRSVSFNFSTVHKSCPAKDWKVHKGKCYWIAETKKSWNKSQNDCAINNSYLMVIQDITAMVRFNI
glycan array binding signal (z-score) [1]: -0.197
glycan array binding signal (z-score) [2]: -0.217
glycan array binding signal (z-score) [3]: -0.075
glycan array binding signal (z-score) [4]: -0.201
glycan array binding signal (z-score) [5]: -0.213
glycan array binding signal (z-score) [6]: -0.244
glycan array binding signal (z-score) [7]: -0.214
glycan array binding signal (z-score) [8]: -0.25
glycan array binding signal (z-score) [9]: -0.169
glycan array binding signal (z-score) [10]: -0.211
glycan array binding signal (z-score) [11]: -0.172
glycan array binding signal (z-score) [12]: -0.181
glycan array binding signal (z-score) [13]: -0.209
glycan array binding signal (z-score) [14]: -0.102
glycan array binding signal (z-score) [15]: -0.35
glycan array binding signal (z-score) [16]: -0.301
glycan array binding signal (z-score) [17]: -0.177
glycan array binding signal (z-score) [18]: -0.192
glycan array binding signal (z-score) [19]: -0.158
glycan array binding signal (z-score) [20]: -0.274
glycan array binding signal (z-score) [21]: -0.206
glycan array binding signal (z-score) [22]: -0.151
glycan array binding signal (z-score) [23]: -0.248
glycan array binding signal (z-score) [24]: -0.212
glycan array binding signal (z-score) [25]: -0.138
glycan array binding signal (z-score) [26]: -0.236
glycan array binding signal (z-score) [27]: 1.75
glycan array binding signal (z-score) [28]: -0.218
glycan array binding signal (z-score) [29]: -0.213
glycan array binding signal (z-score) [30]: -0.237
glycan array binding signal (z-score) [31]: -0.154
glycan array binding signal (z-score) [32]: -0.196
glycan array binding signal (z-score) [33]: 0.172
glycan array binding signal (z-score) [34]: -0.275
glycan array binding signal (z-score) [35]: -0.203
glycan array binding signal (z-score) [36]: -0.144
glycan array binding signal (z-score) [37]: -0.148
glycan array binding signal (z-score) [38]: -0.171
glycan array binding signal (z-score) [39]: -0.249
glycan array binding signal (z-score) [40]: 0.13
glycan array binding signal (z-score) [41]: -0.175
glycan array binding signal (z-score) [42]: 0.221
glycan array binding signal (z-score) [43]: -0.04
glycan array binding signal (z-score) [44]: 1.34
glycan array binding signal (z-score) [45]: 0.024
